In publication PMC4336329 (PLoS ONE, 2015):
Screen size: about 310,000 compounds; about 2,200 (0.71%) showed an effect of 50% or more. The effect is printed as a negative number. The list shows a part of the results.

Target: human ether-à-go-go-related gene (hERG) potassium channel (human, UniProt Q12809)
Assay: primary screen, population patch clamp on CHO cells stably expressing hERG

Sequence of human ether-à-go-go-related gene (hERG) potassium channel (Q12809 whole entry, looked up): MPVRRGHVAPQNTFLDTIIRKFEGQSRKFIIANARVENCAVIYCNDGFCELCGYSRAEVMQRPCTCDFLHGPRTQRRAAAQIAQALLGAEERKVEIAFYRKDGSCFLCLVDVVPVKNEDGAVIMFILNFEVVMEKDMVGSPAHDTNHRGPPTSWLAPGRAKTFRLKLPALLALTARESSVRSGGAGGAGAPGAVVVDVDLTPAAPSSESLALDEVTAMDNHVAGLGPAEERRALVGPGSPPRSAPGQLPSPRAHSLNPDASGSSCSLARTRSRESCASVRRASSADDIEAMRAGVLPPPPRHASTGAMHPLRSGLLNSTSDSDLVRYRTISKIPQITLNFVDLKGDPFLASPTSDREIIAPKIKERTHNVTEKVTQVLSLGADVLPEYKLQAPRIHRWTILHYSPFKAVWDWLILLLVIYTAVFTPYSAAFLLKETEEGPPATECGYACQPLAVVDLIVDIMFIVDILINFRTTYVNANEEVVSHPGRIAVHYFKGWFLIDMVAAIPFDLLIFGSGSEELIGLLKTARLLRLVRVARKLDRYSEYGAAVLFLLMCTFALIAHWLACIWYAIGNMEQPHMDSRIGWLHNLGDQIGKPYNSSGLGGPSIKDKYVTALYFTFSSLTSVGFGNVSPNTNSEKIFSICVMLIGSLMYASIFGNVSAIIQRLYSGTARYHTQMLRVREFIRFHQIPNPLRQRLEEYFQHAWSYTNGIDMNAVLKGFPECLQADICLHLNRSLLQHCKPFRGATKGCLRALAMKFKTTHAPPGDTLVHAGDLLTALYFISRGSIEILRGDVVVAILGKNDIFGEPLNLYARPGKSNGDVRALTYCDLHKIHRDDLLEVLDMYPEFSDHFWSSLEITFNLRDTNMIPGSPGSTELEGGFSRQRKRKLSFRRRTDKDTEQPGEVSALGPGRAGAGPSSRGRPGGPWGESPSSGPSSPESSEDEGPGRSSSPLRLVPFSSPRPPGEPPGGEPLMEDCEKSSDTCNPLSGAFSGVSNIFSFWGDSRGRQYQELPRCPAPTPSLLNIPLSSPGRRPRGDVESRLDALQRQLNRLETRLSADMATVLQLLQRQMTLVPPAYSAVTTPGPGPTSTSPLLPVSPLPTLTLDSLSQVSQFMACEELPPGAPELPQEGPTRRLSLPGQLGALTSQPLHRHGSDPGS

Row | Structure (SMILES) | hERG current change (%, negative = inhibition) at 1uM [%]
1 | CCN(CC)S(=O)(=O)c1ccc(C)c(NC(=O)CSc2nc3ccccc3[nH]2)c1 | 5.26
2 | CCN(CC)c1ccc(C2C(C(=O)OCCOC(C)C)=C(C)NC3=C2C(=O)CCC3)cc1 (centres unmarked) | 4.21
3 | CCCC(=O)Nc1cc(C(=O)O)ccc1S(=O)(=O)c1ccc(C)cc1 | 9.45
4 | CC(Sc1nnc(C2CC2)n1C1CC1)C(=O)NC1(C#N)CCCCC1 (centres unmarked) | 1.84
5 | COc1ccc(CCNC(=O)c2ccc(Cl)c(S(=O)(=O)N3CCCC3)c2)cc1 | -4.63
6 | O=C(NC(=S)Nc1ccc(Cl)cn1)c1cccs1 | 12.7
7 | CCOc1c2ccc(C(=O)NCc3ccc(OC(F)(F)F)cc3)cc2nn1CC | 3.49
8 | O=C1N/C(=C/c2cccs2)C(=O)N1Cc1ccccc1F | 4.52
9 | O=C(Nc1ccc2oc(-c3ccccc3F)nc2c1)c1ccc([N+](=O)[O-])o1 | 12.6
10 | COc1ccc(CCNC(=O)c2ccc(OCc3c(C)noc3C)cc2)cc1OC | 5.91
11 | O=C(Cc1ccccc1)Nc1cccc(C(=O)N/N=C/c2ccco2)c1 | 5.46
12 | COc1cc(C(C)=O)ccc1OCC(O)CN1CCN(S(=O)(=O)c2ccccc2)CC1 (centres unmarked) | 1.54
13 | COc1ccc(C(CNC(=O)C2CCN(S(=O)(=O)c3ccc(F)cc3)CC2)N(C)C)cc1 (centres unmarked) | 7.61
14 | CCOC(=O)C1C(C)=C(Nc2ccc(OC)cc2)C(=O)N1c1ccc(OC)cc1 (centres unmarked) | 11.5
15 | CC(=O)N1CCN=C1SCc1cccc(F)c1 | 16.4
16 | CCOC(=O)c1cccc(NC(=O)C2CCN(c3ncnc4c3nc3n4CCCCC3)CC2)c1 | 19.7
17 | COP(=O)(OC)C(Nc1cc(Cl)cc(Cl)c1)c1cccc(O)c1 (centres unmarked) | 10.6
18 | O=C(CSc1nnc(CN2CCOCC2)n1-c1ccccc1)Nc1ccc(Cl)cc1 | -4.14
19 | C=CCn1c(O)c(CN2CCCCC2)c(C)c(C#N)c1=O | 9.51

Row | Structure (SMILES) | hERG current change (%, negative = inhibition) at 1uM [%]
20 | CC(=O)c1ccc(N2Cc3ccccc3C2=NC(=O)c2cccs2)cc1 | 0.895
21 | CCOc1ccc(-n2c(SCC(=O)Nc3ccccc3C)n[nH]c2=O)cc1 | 13
22 | CCOC(=O)c1c(O)c2cc(Cl)ccc2n(CC)c1=O | 10.8
23 | CC(C)(C)C1CCc2c(sc(NC(=O)CSc3ncn[nH]3)c2C#N)C1 (centres unmarked) | 11.7
24 | CCc1ccc(CN(C)C(=O)CCc2nc3ccccc3n(-c3ccc(OC)cc3)c2=O)cc1 | 5.88
25 | CC(NC(=O)C1CCCCC1)C(=O)NC1=NCCS1 (centres unmarked) | -0.523
26 | CCCC(=O)NC(c1ccco1)c1cc([N+](=O)[O-])c2cccnc2c1O (centres unmarked) | 9.23
27 | Cc1cc(OCC(=O)NCC(O)c2ccccc2)c2c(C)c(C)c(=O)oc2c1 (centres unmarked) | 16.6
28 | COc1ccc(/C=C2\Oc3cc(OC(=O)N4CCOCC4)ccc3C2=O)cc1 | 3.7
29 | C=CCn1c(SCC(=O)OCc2ccccc2)nc2c1c(=O)n(C)c(=O)n2C | -1.44
30 | COc1ccccc1CNS(=O)(=O)c1c(C(=O)N2CCCCC2)c(C)n(C)c1C | 10.8
31 | Cc1ccc(C)c(S(=O)(=O)NCCCc2ccccc2)c1 | 10.9
32 | COc1cccc(-n2nc(C(C)=O)c(C#N)c2-c2ccco2)c1 | 10.9
33 | C=CCc1c(O)nc(SCC(=O)c2ccccc2)[nH]c1=O | 5.27
34 | O=C(N/N=C/c1ccccc1F)NC1CCCCC1 | 0.617
35 | c1ccc(-c2nc(-c3ccncc3)no2)cc1 | 12.2
36 | O=C(Nc1ccc(S(=O)(=O)N2CCOCC2)cc1)c1ccc(=O)[nH]c1 | 15.5
37 | CCN(CC)c1ccc(NC(=O)CCc2nnc3ccc(N4CCCC4)nn23)c(C)c1 | 7.38
38 | O=C(/C=C\c1ccccc1)Nc1ccc(NC(=O)c2ccco2)cc1 | 12

Row | Structure (SMILES) | hERG current change (%, negative = inhibition) at 1uM [%]
39 | CC(OC(=O)CNS(=O)(=O)c1ccc(C#N)cc1)C(=O)Nc1ccc(Cl)cn1 (centres unmarked) | -24.2
40 | CCOc1cc2c(cc1OCC)-n1cccc1C(c1cc(C)c(OC)cc1C)NC2.Cl (centres unmarked) | -1.29
41 | COc1ccccc1Nc1nc(C)cc(=O)[nH]1 | -2.18
42 | CCCCCOc1ccccc1C(=O)NCC(=O)O | 6.44
43 | CN(CC(=O)NCc1ccc(Cl)cc1)S(=O)(=O)c1cccc2nsnc12 | -5.69
44 | Cc1cc(N2C(=O)C(O)=C(C(=O)c3ccco3)C2c2cccnc2)no1 (centres unmarked) | 12.6
45 | Cc1ccccc1N=C(NOCc1ccc(Cl)cc1Cl)c1nonc1N | -0.598
46 | CC1(C)CC2(CCCN(C(=S)Nc3ccccc3)C2)CCO1 (centres unmarked) | 16.2
47 | Cc1cc2c(cc1S(=O)(=O)NCc1ccccc1)NC(=O)CO2 | 4
48 | COc1ccccc1-c1cc(C(=O)N/N=C/c2ccc(C)s2)c2ccccc2n1 | 16.3
49 | COc1ccc(-c2ccc(/C=C3/C(=N)N4C(C)=CSC4=NC3=O)o2)c([N+](=O)[O-])c1 | 14.4
50 | Nc1cc(N)nc(SCC(=O)NCCC2=CCCCC2)n1 | 3.85
51 | COc1ccc(/C=C2\SC(=N)N(c3ccc(F)cc3)C2=O)cc1OC | 15.2
52 | CCc1nnc(NC(=O)C2Cc3ccccc3C(=O)O2)s1 (centres unmarked) | 6.1
53 | O=C(O)CCNS(=O)(=O)c1cccc2nsnc12 | 11.7
54 | Cc1ccc(C2C(C=Nc3c(C)n(C)n(-c4ccccc4)c3=O)=C(c3ccccc3)Oc3ccccc32)cc1 (centres unmarked) | 13.3
55 | COC(=O)c1sccc1NC(=O)CSc1ccccc1NC(=O)CNC(C)C | 5.26
56 | COc1ccc(CCNC(=O)CSc2ncnc3c2oc2ccccc23)cc1OC | 0.642
